# This list was built around the results that the source calls inconclusive (neither active nor inactive); the mix of calls is not that of the screen. Entries that show only a call come without a potency. For part of these data: Potencies of inconclusive entries are doubtful fits and often do not repeat. The source holds several records for some structures; these can differ, active in one and inactive in another. Active and inactive are the calls of the source. Unless noted, calls follow the shape of the dose curve; as a rule, active = well fitted curve in the direction sought with a large enough effect in the repeat runs; inconclusive = weak or mixed curves; inactive = no such curve, though single readings can be large; an effect the other way counts as inactive or inconclusive.
# How the values were obtained:
# [1] = qHTS assay to identify small molecule antagonists of the androgen receptor (AR) signaling pathway using the MDA cell line in the presence of 0.5 nM R1881 - cell viability counter screen (AID 1259242); also: nearly all actives have a fitted effect of over 45% in size; also: potency is read from the fitted curve at half-maximal effect
# Procedure, shortened: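 Concentration-response screen of compounds for toxicity in MDA-kb2 reporter cells: 16 hr at 37C with 0.5 nM R1881, endpoint live-cell protease fluorescence measured in the reporter wells.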
# [2] = qHTS assay to identify small molecule agonists of the sonic hedgehog signaling (Shh) pathway - cell viability counter screen (AID 1259366); also: nearly all actives have a fitted effect of over 50% in size; also: potency is read from the fitted curve at half-maximal effect
# Procedure, shortened: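 Viability measured fluorometrically (CellTiter-Fluor, 1hr, 37C) in 3T3 Gli1-Luc reporter cells after 23hr compound exposure within a 24hr incubation at 37C/5% CO2.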
# [3] = qHTS assay to identify small molecule antagonists of the sonic hedgehog signaling (Shh) pathway - cell viability counter screen (AID 1259367); also: nearly all actives have a fitted effect of over 55% in size; also: potency is read from the fitted curve at half-maximal effect
# Procedure, shortened: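 Tox21 library chemicals were tested on a Gli1-Luc NIH/3T3 clone (2,000 cells/well) stimulated by conditioned medium; viability was quantified as fluorescence from CellTiter-Fluor reagent added at 23 hr.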
# [4] = molecular target: Estrogen receptor (Homo sapiens) (UniProt P03372); assay: qHTS assay to identify small molecule antagonists of the estrogen receptor alpha (ER-alpha) signaling pathway using the BG1 cell line in the presence of 0.1 nM 17-beta-estradiol (AID 1259244); also: nearly all actives have a fitted effect of over 50% in size; also: potency is read from the fitted curve at half-maximal effect
# Sequence of UniProt P03372 (P03372 whole entry, looked up): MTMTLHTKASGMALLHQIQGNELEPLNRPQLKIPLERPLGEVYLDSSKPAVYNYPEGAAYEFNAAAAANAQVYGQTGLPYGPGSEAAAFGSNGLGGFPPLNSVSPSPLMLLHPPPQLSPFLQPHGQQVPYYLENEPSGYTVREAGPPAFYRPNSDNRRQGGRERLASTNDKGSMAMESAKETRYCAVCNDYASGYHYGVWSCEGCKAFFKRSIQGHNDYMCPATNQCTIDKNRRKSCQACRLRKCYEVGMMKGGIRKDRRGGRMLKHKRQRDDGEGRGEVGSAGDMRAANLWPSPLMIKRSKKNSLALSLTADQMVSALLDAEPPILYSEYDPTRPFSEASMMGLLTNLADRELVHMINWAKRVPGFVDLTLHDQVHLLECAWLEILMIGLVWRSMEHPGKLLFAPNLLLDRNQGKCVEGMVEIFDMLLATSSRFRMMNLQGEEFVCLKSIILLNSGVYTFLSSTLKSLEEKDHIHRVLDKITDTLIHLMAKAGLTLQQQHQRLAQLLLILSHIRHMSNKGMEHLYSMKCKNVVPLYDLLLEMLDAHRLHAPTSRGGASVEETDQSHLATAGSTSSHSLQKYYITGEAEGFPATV
# Procedure, shortened: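 Compounds were tested against 0.1 nM (final) 17beta-estradiol in VM7Luc4E2 cells, which express full-length ER-alpha and an ERE-luciferase reporter; luminescence was recorded following 22 h exposure.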
# [5] = molecular target: Androgen receptor (Homo sapiens) (UniProt P10275); assay: qHTS assay to identify small molecule antagonists of the androgen receptor (AR) signaling pathway using the MDA cell line in the presence of 0.5 nM R1881 (AID 1259243); also: nearly all actives have a fitted effect of over 50% in size
# Sequence of UniProt P10275 (P10275 whole entry, looked up): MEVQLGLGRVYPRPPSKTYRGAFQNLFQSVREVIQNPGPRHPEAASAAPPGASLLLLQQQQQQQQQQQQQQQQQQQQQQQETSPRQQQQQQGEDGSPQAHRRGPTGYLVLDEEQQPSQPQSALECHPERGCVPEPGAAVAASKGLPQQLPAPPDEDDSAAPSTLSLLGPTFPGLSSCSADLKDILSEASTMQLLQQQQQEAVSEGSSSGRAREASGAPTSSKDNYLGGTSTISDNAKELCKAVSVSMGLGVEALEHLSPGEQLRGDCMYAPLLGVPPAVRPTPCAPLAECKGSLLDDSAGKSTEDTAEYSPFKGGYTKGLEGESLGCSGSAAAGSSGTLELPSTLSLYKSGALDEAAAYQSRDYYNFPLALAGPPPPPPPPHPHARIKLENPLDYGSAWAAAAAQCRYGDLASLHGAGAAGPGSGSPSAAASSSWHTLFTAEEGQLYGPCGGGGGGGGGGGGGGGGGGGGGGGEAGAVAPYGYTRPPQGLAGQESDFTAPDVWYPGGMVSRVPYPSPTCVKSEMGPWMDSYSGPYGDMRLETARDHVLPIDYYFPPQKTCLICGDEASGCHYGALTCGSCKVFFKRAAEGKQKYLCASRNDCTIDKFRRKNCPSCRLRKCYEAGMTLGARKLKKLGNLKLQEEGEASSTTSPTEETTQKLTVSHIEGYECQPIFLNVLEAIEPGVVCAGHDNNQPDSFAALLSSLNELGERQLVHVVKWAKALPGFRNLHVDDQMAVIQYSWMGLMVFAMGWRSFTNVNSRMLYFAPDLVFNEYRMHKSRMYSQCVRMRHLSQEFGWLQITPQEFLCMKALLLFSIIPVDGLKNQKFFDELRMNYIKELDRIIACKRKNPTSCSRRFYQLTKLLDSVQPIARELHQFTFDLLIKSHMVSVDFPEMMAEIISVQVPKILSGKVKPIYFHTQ
# Procedure, shortened: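 With R1881 held at 0.5 nM (final), compound effects on MMTV-luciferase expression in MDA-kb2 cells were scored by luminescence after a 16 hr, 37C incubation.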
# [6] = qHTS assay to identify small molecule antagonists of the sonic hedgehog signaling (Shh) pathway (AID 1259369; calls by dose curve; also: nearly all actives have a fitted effect of over 45% in size; also: potency is read from the fitted curve at half-maximal effect)
# Procedure, shortened: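 NIH/3T3 stable Gli1-Luc clone, 2,000 cells/well, 4hr settle; cpd + conditioned medium 24hr; Luc reagent 30min RT; luminescence.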
# [7] = molecular target: Estrogen receptor beta (Homo sapiens) (UniProt Q92731); assay: qHTS assay to identify small molecule agonists of the estrogen receptor beta (ER-beta) signaling pathway (AID 1259377; active = well fitted activation curve with a large enough effect in the signal ratio in the repeat runs, not every such curve was filed as active; inconclusive = weak or mixed curves, or effect the other way; the % refers to the signal ratio); settings: ER-beta-UAS-bla HEK293T, beta-lactamase FRET ratio, 16 h; activation: at 92.4 µM (top of the series) unless noted
# Sequence of UniProt Q92731 (Q92731 whole entry, looked up): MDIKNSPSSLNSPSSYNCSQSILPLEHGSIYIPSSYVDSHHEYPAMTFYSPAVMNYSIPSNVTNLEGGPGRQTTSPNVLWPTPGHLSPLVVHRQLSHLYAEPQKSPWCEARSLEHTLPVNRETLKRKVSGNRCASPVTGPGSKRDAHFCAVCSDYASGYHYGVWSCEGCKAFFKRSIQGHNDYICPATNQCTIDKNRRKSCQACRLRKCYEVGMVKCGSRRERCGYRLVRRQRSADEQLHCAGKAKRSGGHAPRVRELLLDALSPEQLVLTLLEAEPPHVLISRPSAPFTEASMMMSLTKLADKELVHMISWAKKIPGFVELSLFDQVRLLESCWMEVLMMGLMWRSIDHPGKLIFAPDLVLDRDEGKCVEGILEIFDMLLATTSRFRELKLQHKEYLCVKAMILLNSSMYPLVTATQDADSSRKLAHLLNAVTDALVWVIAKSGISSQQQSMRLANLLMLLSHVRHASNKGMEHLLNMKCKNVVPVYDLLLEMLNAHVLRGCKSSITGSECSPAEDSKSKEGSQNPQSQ
# Procedure, shortened: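 A UAS-controlled beta-lactamase reporter in ER-beta-UAS-bla HEK293T cells reports receptor activation. Compounds act for 16 hr at 37C in 2% charcoal-stripped serum, and a FRET substrate is read by fluorescence after 2 hours.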
# [8] = qHTS assay to identify small molecule phospholipidosis (PLD) inducers (AID 1259344; active = well fitted curve in the direction sought with a large enough effect; inconclusive = small, poorly fitted or top-dose-only effect, or another doubt; inactive = no such curve, though single readings can be large; an effect the other way counts as inactive or inconclusive; also: potency is read from the fitted curve at half-maximal effect)
# Procedure, shortened: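 Image-based: LipidTOX Red pit count/intensity per well and per cell; HepG2, 24 h compound at 37 C, PFA fixation, Hoechst counterstain.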
# [9] = qHTS assay to identify small molecule HDAC inhibitors (AID 1259364);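 also: wild-type HCT-116 cells with endogenous class I/II HDAC activity; potency is read from the fitted curve at half-maximal effect; nearly all actives have a fitted effect of over 45% in size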
# Procedure, shortened: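 Screening used wild-type human colon HCT-116 cells incubated overnight, dosed with compounds for 2 hours, and assayed with a homogeneous luminogenic HDAC I/II reagent for 30 minutes at room temperature.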
# [10] = qHTS assay to identify small molecule HDAC inhibitors - cell viability counter screen (AID 1259365); also: nearly all actives have a fitted effect of over 50% in size
# Procedure, shortened: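 Viability readout: CellTiter-Glo luminescence. Wild-type HCT-116 cells, 2hr compound treatment following overnight attachment at 37 C.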
# Tags tell the direction and shape of the fitted curve.
smiles,measurement,setting,value
CC(C)(N=C=O)c1cccc(C(C)(C)N=C=O)c1,Potency,[1],inactive
same,Potency,[2],"inconclusive: 42.9 µM [cytotoxic, partial curve, poor fit]"
same,Potency,[3],"inconclusive: 54 µM [cytotoxic, partial curve, poor fit]"
Nc1ccc(NCCO)c([N+](=O)[O-])c1,Potency,[1],inconclusive: 61.1 µM [cytotoxic]
same,Potency,[2],"inconclusive: 48.6 µM [cytotoxic, partial curve]"
same,Potency,[3],"inconclusive: 48.6 µM [cytotoxic, partial curve]"
CCCCOCCOC(=O)c1cccnc1,Potency,[4],inactive
CCOC(=O)COc1cc(-n2ncc(C(F)(F)F)c(C)c2=O)c(F)cc1Cl,Potency,[5],inactive
same,Potency,[3],inactive
same,Potency,[6],inactive
CC[N+](CC)(CC)CCOC(=O)C(C1CCCC1)C1CCCC1,Potency,[1],inconclusive: 33.5 µM [cytotoxic]
same,Potency,[4],"inconclusive: 33.5 µM [inhibitor, partial curve, poor fit]"
N[C@@H](COP(=O)(O)O)C(=O)O,"viability change, negative = cytotoxic",[1],inactive: 4.56% [at 19 µM]
same,"activity change, negative = inhibition",[6],inactive: 28.3% [at 19 µM]
same,activation,[7],inactive: 0.272% [at 19 µM]
Cn1c(=O)cc(Oc2ccc(F)cc2F)c2cnc(NCC(C)(C)O)nc21,Potency,[4],"inconclusive: 21.7 µM [inhibitor, full curve]"
same,Potency,[3],"inconclusive: 54.5 µM [cytotoxic, partial curve, poor fit]"
same,Potency,[7],inactive
CCCCOCCO,Potency,[4],inactive
CC(=O)OC(C)C[N+](C)(C)C (centres undefined),Potency,[4],inactive
same,Potency,[2],inactive
same,Potency,[6],"inconclusive: 0.422 µM [inhibitor, single point]"
CC(=O)OC[C@H]1O[C@@H](OC(C)=O)[C@H](OC(C)=O)[C@@H]1OC(C)=O,Potency,[5],inactive
Cc1ccc2c(c1)CCCN2,Potency,[4],"inconclusive: 68.6 µM [inhibitor, single point]"
FC1(F)C(F)(F)C(F)(F)C2(F)C(F)(F)C(F)(F)C(F)(F)C(F)(F)C2(F)C1(F)F (centres undefined),Potency,[4],inactive
same,Potency,[6],inactive
CCCCOC(=O)CCS,Potency,[4],active: 27.3 µM
OCCN1CCN(CCCN2c3ccccc3C=Cc3ccccc32)CC1,Potency,[1],inactive
same,Potency,[8],active: 12.6 µM
same,Potency,[6],"inconclusive: 15 µM [inhibitor, partial curve]"
same,Potency,[7],inactive
OCCNCc1ccccc1,Potency,[4],inactive
CCN(CC)C(=O)/C(C#N)=C/c1cc(O)c(O)c([N+](=O)[O-])c1,Potency,[1],"inconclusive: 10.6 µM [cytotoxic, partial curve]"
same,Potency,[9],"inconclusive: 23.7 µM [inhibitor, partial curve, poor fit]"
O=C(O)c1ccccc1[N+](=O)[O-],Potency,[1],inactive
O=S1(=O)CCCO1,Potency,[1],inactive
same,Potency,[2],inactive
same,Potency,[6],"inconclusive: 15.4 µM [inhibitor, single point]"
same,Potency,[7],inactive
Cc1ccc2cccnc2c1,Potency,[5],inactive
same,Potency,[6],inactive
CCCCCCCCCCC(=O)O,Potency,[4],inactive
same,Potency,[6],"inconclusive: 34.8 µM [inhibitor, partial curve, poor fit]"
CCCCC1(COC(=O)CCC(=O)O)C(=O)N(c2ccccc2)N(c2ccccc2)C1=O,Potency,[4],"inconclusive: 2.42 µM [inhibitor, full curve, poor fit]"
CCOCC(O)COc1ccc(NC(=O)CC[S+](C)C)cc1 (centres undefined),Potency,[1],inactive
same,Potency,[10],inactive
same,Potency,[7],inactive
Clc1nnc(Cl)c2ccccc12,Potency,[1],"inconclusive: 12.1 µM [cytotoxic, full curve]"
same,Potency,[6],"inconclusive: 1.36 µM [inhibitor, full curve]"
CC(C)C1CCC(C(=O)N[C@H](Cc2ccccc2)C(=O)O)CC1 (some centres undefined),Potency,[4],inactive
same,Potency,[2],inactive
CN(C)CCCOC1(Cc2ccccc2)CCCCCC1,Potency,[5],inactive
same,Potency,[6],"inconclusive: 13.3 µM [inhibitor, full curve]"
O=C(O)CCS,Potency,[1],inactive

# Source: PubChem BioAssay (Tox21)
